{"source": "the supplement of paper PMC8728848", "assay_in_all_cases": "glycan array binding signal (z-score within array); higher = stronger binding", "conditions_in_all_cases": "glycan notation: IUPAC condensed, linker removed", "key": {"[1]": {"molecular_target": "Kdn(a2-3)Gal(b1-4)Glc", "in_short": "(§1)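 Columns mapping to the same glycan were averaged after glycan names were converted to IUPAC-condensed notation. The data come from 3228 arrays in the Consortium for Functional Glycomics database, limited to those with an available protein sequence. Binding is reported as a within-array Z-score averaged across arrays of one protein sequence and across linkers.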"}, "[2]": {"molecular_target": "Kdn(a2-3)Gal(b1-4)GlcNAc", "in_short": "as §1"}, "[3]": {"molecular_target": "Kdn(a2-3)Gal(b1-4)[Fuc(a1-3)]GlcNAc", "in_short": "as §1"}, "[4]": {"molecular_target": "Kdn(a2-6)Gal(b1-4)GlcNAc", "in_short": "as §1"}, "[5]": {"molecular_target": "Man(a1-2)Man(a1-2)Man(a1-3)Man", "in_short": "as §1"}, "[6]": {"molecular_target": "Man(a1-2)Man(a1-2)Man(a1-6)[Man(a1-3)]Man", "in_short": "as §1"}, "[7]": {"molecular_target": "Man(a1-2)Man(a1-3)Man", "in_short": "as §1"}, "[8]": {"molecular_target": "Man(a1-2)Man(a1-3)[Man(a1-2)Man(a1-6)]Man", "in_short": "as §1"}, "[9]": {"molecular_target": "Man(a1-2)Man(a1-3)[Man(a1-2)Man(a1-6)]Man(a1-6)[Man(a1-2)Man(a1-2)Man(a1-3)]Man", "in_short": "as §1"}, "[10]": {"molecular_target": "Man(a1-2)Man(a1-3)[Man(a1-2)Man(a1-6)]Man(a1-6)[Man(a1-2)Man(a1-2)Man(a1-3)]Man(b1-4)GlcNAc(b1-4)GlcNAc", "in_short": "as §1"}, "[11]": {"molecular_target": "Man(a1-2)Man(a1-3)[Man(a1-6)]Man(a1-6)[Man(a1-2)Man(a1-3)]Man(b1-4)GlcNAc(b1-4)GlcNAc", "in_short": "as §1"}, "[12]": {"molecular_target": "Man(a1-2)Man(a1-6)[Man(a1-3)]Man(a1-6)[Man(a1-2)Man(a1-2)Man(a1-3)]Man", "in_short": "as §1"}, "[13]": {"molecular_target": "Man(a1-2)Man(a1-6)[Man(a1-3)]Man(a1-6)[Man(a1-2)Man(a1-2)Man(a1-3)]Man(b1-4)GlcNAc(b1-4)GlcNAc", "in_short": "as §1"}, "[14]": {"molecular_target": "Man(a1-3)[Man(a1-6)]Man", "in_short": "as §1"}, "[15]": {"molecular_target": "Man(a1-3)[Man(a1-6)]Man(a1-6)[Man(a1-2)Man(a1-3)]Man(b1-4)GlcNAc(b1-4)GlcNAc", "in_short": "as §1"}, "[16]": {"molecular_target": "Man(a1-3)[Man(a1-6)]Man(a1-6)[Man(a1-3)]Man", "in_short": "as §1"}, "[17]": {"molecular_target": "Man(a1-3)[Man(a1-6)]Man(a1-6)[Man(a1-3)]Man(b1-4)GlcNAc(b1-4)GlcNAc", "in_short": "as §1"}, "[18]": {"molecular_target": "Man(a1-3)[Man(a1-6)]Man(b1-4)GlcNAc(b1-4)GlcNAc", "in_short": "as §1"}, "[19]": {"molecular_target": "Man(a1-3)[Man(a1-6)]Man(b1-4)GlcNAc(b1-4)[Fuc(a1-6)]GlcNAc", "in_short": "as §1"}, "[20]": {"molecular_target": "Man(a1-6)Man", "in_short": "as §1"}, "[21]": {"molecular_target": "Man(b1-4)GlcNAc", "in_short": "as §1"}, "[22]": {"molecular_target": "MurNAc(b1-4)GlcNAc", "in_short": "as §1"}, "[23]": {"molecular_target": "Neu5Ac(a2-3)Gal", "in_short": "as §1"}, "[24]": {"molecular_target": "Neu5Ac(a2-3)Gal(b1-3)GalNAc", "in_short": "as §1"}, "[25]": {"molecular_target": "Neu5Ac(a2-3)Gal(b1-3)GalNAc(b1-3)Gal(a1-4)Gal(b1-4)Glc", "in_short": "as §1"}, "[26]": {"molecular_target": "Neu5Ac(a2-3)Gal(b1-3)GalNAc(b1-4)[Neu5Ac(a2-3)]Gal(b1-4)Glc", "in_short": "as §1"}, "[27]": {"molecular_target": "Neu5Ac(a2-3)Gal(b1-3)GalNAc(b1-4)[Neu5Ac(a2-8)Neu5Ac(a2-3)]Gal(b1-4)Glc", "in_short": "as §1"}, "[28]": {"molecular_target": "Neu5Ac(a2-3)Gal(b1-3)GalNAc6S", "in_short": "as §1"}, "[29]": {"molecular_target": "Neu5Ac(a2-3)Gal(b1-3)GlcNAc", "in_short": "as §1"}, "[30]": {"molecular_target": "Neu5Ac(a2-3)Gal(b1-3)GlcNAc(b1-2)Man", "in_short": "as §1"}, "[31]": {"molecular_target": "Neu5Ac(a2-3)Gal(b1-3)GlcNAc(b1-2)Man(a1-3)[GlcNAc(b1-4)][Neu5Ac(a2-3)Gal(b1-3)GlcNAc(b1-2)Man(a1-6)]Man(b1-4)GlcNAc(b1-4)GlcNAc", "in_short": "as §1"}, "[32]": {"molecular_target": "Neu5Ac(a2-3)Gal(b1-3)GlcNAc(b1-2)Man(a1-3)[Neu5Ac(a2-3)Gal(b1-3)GlcNAc(b1-2)Man(a1-6)]Man(b1-4)GlcNAc(b1-4)GlcNAc", "in_short": "as §1"}, "[33]": {"molecular_target": "Neu5Ac(a2-3)Gal(b1-3)GlcNAc(b1-3)Gal(b1-3)GlcNAc", "in_short": "as §1"}, "[34]": {"molecular_target": "Neu5Ac(a2-3)Gal(b1-3)GlcNAc(b1-3)Gal(b1-4)GlcNAc", "in_short": "as §1"}, "[35]": {"molecular_target": "Neu5Ac(a2-3)Gal(b1-3)GlcNAc(b1-3)GalNAc", "in_short": "as §1"}, "[36]": {"molecular_target": "Neu5Ac(a2-3)Gal(b1-3)GlcNAc(b1-4)Gal(b1-4)Glc", "in_short": "as §1"}, "[37]": {"molecular_target": "Neu5Ac(a2-3)Gal(b1-3)GlcNAc(b1-6)GalNAc", "in_short": "as §1"}, "[38]": {"molecular_target": "Neu5Ac(a2-3)Gal(b1-3)GlcNAc6S", "in_short": "as §1"}}, "note": "This is one part of the list.", "data": [{"binder": "Clec18C (Homo sapiens) (protein) MLHPETSPGRGHLLAVLLALLGTAWAEVWPPQLQEQAPMAGALNRKESFLLLSLHNRLRSWVQPPAADMRRLDWSDSLAQLAQARAALCGTPTPSLASGLWRTLQVGWNMQLLPAGLVSFVEVVSLWFAEGQRYSHAAGECARNATCTHYTQLVWATSSQLGCGRHLCSAGQAAIEAFVCAYSPRGNWEVNGKTIVPYKKGAWCSLCTASVSGCFKAWDHAGGLCEVPRNPCRMSCQNHGRLNISTCHCHCPPGYTGRYCQVRCSLQCVHGRLREEECSCVCDIGYGGAQCATKVHFPFHTCDLRIDGDCFMVSSEADTYYRARMKCQRKGGVLAQIKSQKVQDILAFYLGRLETTNEVIDSDFETRNFWIGLTYKTAKDSFRWATGEHQAFTSFAFGQPDNHGFGNCVELQASAAFNWNNQRCKTRNRYICQFAQEHISRWGPGS", "values": [{"measurement": "glycan array binding signal (z-score)", "setting": "[1]", "result": -0.499}, {"measurement": "glycan array binding signal (z-score)", "setting": "[2]", "result": -0.603}, {"measurement": "glycan array binding signal (z-score)", "setting": "[3]", "result": -0.236}, {"measurement": "glycan array binding signal (z-score)", "setting": "[4]", "result": -0.559}, {"measurement": "glycan array binding signal (z-score)", "setting": "[5]", "result": -0.569}, {"measurement": "glycan array binding signal (z-score)", "setting": "[6]", "result": -0.632}, {"measurement": "glycan array binding signal (z-score)", "setting": "[7]", "result": -0.567}, {"measurement": "glycan array binding signal (z-score)", "setting": "[8]", "result": -0.406}, {"measurement": "glycan array binding signal (z-score)", "setting": "[9]", "result": -0.536}, {"measurement": "glycan array binding signal (z-score)", "setting": "[10]", "result": -0.452}, {"measurement": "glycan array binding signal (z-score)", "setting": "[11]", "result": -0.302}, {"measurement": "glycan array binding signal (z-score)", "setting": "[12]", "result": 0.701}, {"measurement": "glycan array binding signal (z-score)", "setting": "[13]", "result": -0.504}, {"measurement": "glycan array binding signal (z-score)", "setting": "[14]", "result": -0.507}, {"measurement": "glycan array binding signal (z-score)", "setting": "[15]", "result": 1.14}, {"measurement": "glycan array binding signal (z-score)", "setting": "[16]", "result": -0.488}, {"measurement": "glycan array binding signal (z-score)", "setting": "[17]", "result": -0.479}, {"measurement": "glycan array binding signal (z-score)", "setting": "[18]", "result": -0.483}, {"measurement": "glycan array binding signal (z-score)", "setting": "[19]", "result": -0.555}, {"measurement": "glycan array binding signal (z-score)", "setting": "[20]", "result": -0.486}, {"measurement": "glycan array binding signal (z-score)", "setting": "[21]", "result": -0.573}, {"measurement": "glycan array binding signal (z-score)", "setting": "[22]", "result": -0.578}, {"measurement": "glycan array binding signal (z-score)", "setting": "[23]", "result": -0.559}, {"measurement": "glycan array binding signal (z-score)", "setting": "[24]", "result": -0.592}, {"measurement": "glycan array binding signal (z-score)", "setting": "[25]", "result": -0.518}, {"measurement": "glycan array binding signal (z-score)", "setting": "[26]", "result": -0.335}, {"measurement": "glycan array binding signal (z-score)", "setting": "[27]", "result": -0.565}, {"measurement": "glycan array binding signal (z-score)", "setting": "[28]", "result": -0.524}, {"measurement": "glycan array binding signal (z-score)", "setting": "[29]", "result": -0.598}, {"measurement": "glycan array binding signal (z-score)", "setting": "[30]", "result": -0.01}, {"measurement": "glycan array binding signal (z-score)", "setting": "[31]", "result": -0.44}, {"measurement": "glycan array binding signal (z-score)", "setting": "[32]", "result": 0.252}, {"measurement": "glycan array binding signal (z-score)", "setting": "[33]", "result": -0.592}, {"measurement": "glycan array binding signal (z-score)", "setting": "[34]", "result": -0.523}, {"measurement": "glycan array binding signal (z-score)", "setting": "[35]", "result": -0.458}, {"measurement": "glycan array binding signal (z-score)", "setting": "[36]", "result": -0.572}, {"measurement": "glycan array binding signal (z-score)", "setting": "[37]", "result": -0.247}, {"measurement": "glycan array binding signal (z-score)", "setting": "[38]", "result": -0.575}]}]}
